Sequences with one replicate were seen in a single cluster, so their values are uncertain.
Test system: ATP
Test: switch fluorescence ratio, 500 uM ATP over buffer (Cy3 cluster intensity, sum of 5 cycles each) (fold (ratio)); higher = stronger signal-on switching upon ATP binding; sequences stand for … in TCGTCGGCAGCGTCAGATGTGTATAAGAGACAGTTTTTTTTTTTTTTTTTTTTTTTTT…TC
Settings: aptamer strand: ATP DNA aptamer (quencher-CACCTGGGGGAGTATTGCGGAGGAAGG + anchor), 100 nM annealed; ATP concentration: 500 uM; one replicate
Outline: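 Switching-strand clusters labelled with Cy3 on a modified Illumina MiSeq flow-cell were annealed to 100 nM quencher-labelled ATP aptamer, imaged in selection buffer, and re-imaged after 15 min with 500 uM ATP at 22 °C. This was done over five cycles with NaOH stripping and re-annealing in between. The fluorescence ratio is summed target-cycle over summed buffer-cycle Cy3 intensity per cluster, averaged per switch-domain sequence, excluding clusters outside 100-1000 RFU.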
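Further: ATP exposure 15 min at 22 °C before imaging.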

Q: For TCGGGGGCCC, which switch fluorescence ratio is on record?
A: 0.988

Q: With GTGGGGTT as the sequence, how does the switch fluorescence ratio read?
A: 1.05

Q: Which switch fluorescence ratio does the source give for TATAGTCGGT here?
A: 0.988

Q: GCTTGGGTCG was tested. Which switch fluorescence ratio did it give?
A: 1.02

Q: TCCGGATGTC was tested. Which switch fluorescence ratio did it give?
A: 1.12

Q: Which switch fluorescence ratio does the source give for TCTTGAGACC here?
A: 1.01

Q: AGCTCGGGCG was tested. Which switch fluorescence ratio did it give?
A: 1.12

Q: For TCCCCCCGGG, which switch fluorescence ratio is on record?
A: 2.38

Q: How did the switch fluorescence ratio turn out when AGGTTTTGAA was run?
A: 0.991

Q: How did the switch fluorescence ratio turn out when TGAGCAAATT was run?
A: 1.06

Q: With GTCACAGCCG as the sequence, how does the switch fluorescence ratio read?
A: 1.08

Q: With GGTGTACTTT as the sequence, how does the switch fluorescence ratio read?
A: 0.983

Q: Which switch fluorescence ratio does the source give for AGTTGAACAT here?
A: 1.02

Q: For AACCCGGATG, which switch fluorescence ratio is on record?
A: 1.08

Q: For ACTCGCCCGG, which switch fluorescence ratio is on record?
A: 5.37

Q: CATGTGGATA was tested. Which switch fluorescence ratio did it give?
A: 0.975

Q: With TCGTGTCGAG as the sequence, how does the switch fluorescence ratio read?
A: 0.973

Q: Which switch fluorescence ratio does the source give for ATCCAGCGTC here?
A: 1.05

Q: TAGCACTAA was tested. Which switch fluorescence ratio did it give?
A: 2.29

Q: For TATGTTGTAG, which switch fluorescence ratio is on record?
A: 0.993

Q: Which switch fluorescence ratio does the source give for ATTTGCCAG here?
A: 0.991

Q: For AGGGCTTTTT, which switch fluorescence ratio is on record?
A: 0.981

Q: With CCCAGGAATA as the sequence, how does the switch fluorescence ratio read?
A: 1.46

Q: CTGTGGAACA was tested. Which switch fluorescence ratio did it give?
A: 0.983

Q: Which switch fluorescence ratio does the source give for CAGAAGTGC here?
A: 1.1

Q: Which switch fluorescence ratio does the source give for AGATTTTACG here?
A: 1

Q: With ACGGTTTGAC as the sequence, how does the switch fluorescence ratio read?
A: 1.06

Q: Which switch fluorescence ratio does the source give for AAAGCCACAG here?
A: 1.06

Q: How did the switch fluorescence ratio turn out when GTCATCATGT was run?
A: 1.04

Q: For TAGGTTAGAG, which switch fluorescence ratio is on record?
A: 0.958

Q: How did the switch fluorescence ratio turn out when GGCGGTTATC was run?
A: 0.993

Q: Which switch fluorescence ratio does the source give for GGTTCCCGCT here?
A: 1.09

Q: How did the switch fluorescence ratio turn out when GGTATTCCTG was run?
A: 1.05

Q: Which switch fluorescence ratio does the source give for CTTGATTCAC here?
A: 0.99

Q: How did the switch fluorescence ratio turn out when ACTAGGATA was run?
A: 0.972

Q: For TGTGGGTC, which switch fluorescence ratio is on record?
A: 0.977

Q: TCGTTGGAAC was tested. Which switch fluorescence ratio did it give?
A: 0.989

Q: How did the switch fluorescence ratio turn out when ATGATGATCT was run?
A: 1.01

Q: Which switch fluorescence ratio does the source give for TTCTTATCAT here?
A: 1.27

Q: How did the switch fluorescence ratio turn out when ATCTTTAGT was run?
A: 1.02

Q: Which switch fluorescence ratio does the source give for TTCCCACGGC here?
A: 1.04

Q: For TCGATTGAG, which switch fluorescence ratio is on record?
A: 0.951

Q: Which switch fluorescence ratio does the source give for AAGTTATAGC here?
A: 0.994

Q: TGCAGATGAC was tested. Which switch fluorescence ratio did it give?
A: 1.08

Q: For AGCAAGTAGA, which switch fluorescence ratio is on record?
A: 1.1

Q: GTTGTAAGTC was tested. Which switch fluorescence ratio did it give?
A: 0.993

Q: Which switch fluorescence ratio does the source give for ACAATGAAAT here?
A: 0.976

Q: Which switch fluorescence ratio does the source give for TAAAAGTAAT here?
A: 0.965

Q: For CCATGGTCTC, which switch fluorescence ratio is on record?
A: 0.999

Q: GTGGAACTGA was tested. Which switch fluorescence ratio did it give?
A: 1.04

Q: With TGATTGAATC as the sequence, how does the switch fluorescence ratio read?
A: 1.02

Q: Which switch fluorescence ratio does the source give for CAGAGAGGG here?
A: 0.932

Q: GAGTCAAGAT was tested. Which switch fluorescence ratio did it give?
A: 1.04

Q: Which switch fluorescence ratio does the source give for TCGGGCTTGG here?
A: 0.97

Q: How did the switch fluorescence ratio turn out when GCCGCCAGTT was run?
A: 1.03

Q: TGTTTATTAT was tested. Which switch fluorescence ratio did it give?
A: 0.98

Q: Which switch fluorescence ratio does the source give for GGTGGAGGTA here?
A: 0.989

Q: With ACGCCAGGAA as the sequence, how does the switch fluorescence ratio read?
A: 1.08

Q: Which switch fluorescence ratio does the source give for AAGAGTAGTA here?
A: 1.01

Q: TGTGTGGAGG was tested. Which switch fluorescence ratio did it give?
A: 1

Q: How did the switch fluorescence ratio turn out when CGTGGGTACG was run?
A: 0.992

Q: How did the switch fluorescence ratio turn out when ATCAGGATTA was run?
A: 0.991

Q: With CAAGGGACAA as the sequence, how does the switch fluorescence ratio read?
A: 1.02

Q: With ATTACTGGTA as the sequence, how does the switch fluorescence ratio read?
A: 1

Q: How did the switch fluorescence ratio turn out when GCACCTGATT was run?
A: 0.997

Q: Which switch fluorescence ratio does the source give for AATGCCGTGT here?
A: 0.98

Q: Which switch fluorescence ratio does the source give for GGATGCACAT here?
A: 1.09

Q: With GCGGACAGGT as the sequence, how does the switch fluorescence ratio read?
A: 1.08

Q: How did the switch fluorescence ratio turn out when GGAGACAATA was run?
A: 1.71

Q: For TAGTCCGGTC, which switch fluorescence ratio is on record?
A: 1.01

Q: For CCGGTCATCG, which switch fluorescence ratio is on record?
A: 0.976

Q: With ATGACTCCAC as the sequence, how does the switch fluorescence ratio read?
A: 1.98

Q: How did the switch fluorescence ratio turn out when TCGAGTAGCG was run?
A: 1.03

Q: For TATGATTGTT, which switch fluorescence ratio is on record?
A: 1.01

Q: How did the switch fluorescence ratio turn out when GCCATCGCAA was run?
A: 2.22

Q: CGTACGAACT was tested. Which switch fluorescence ratio did it give?
A: 1.01

Q: TGCGACTAGT was tested. Which switch fluorescence ratio did it give?
A: 1.03

Q: How did the switch fluorescence ratio turn out when CAAGGACGGC was run?
A: 0.97

Q: TTCAACTGTT was tested. Which switch fluorescence ratio did it give?
A: 1

Q: How did the switch fluorescence ratio turn out when GTGACATCAT was run?
A: 0.995

Q: With CCACATCTGG as the sequence, how does the switch fluorescence ratio read?
A: 0.955

Q: Which switch fluorescence ratio does the source give for GCACCCCGAT here?
A: 1.08

Q: Which switch fluorescence ratio does the source give for GATTATGAT here?
A: 1.04

Q: CGATCACAAA was tested. Which switch fluorescence ratio did it give?
A: 1.05

Q: Which switch fluorescence ratio does the source give for AAATATTCGC here?
A: 1.02

Q: Which switch fluorescence ratio does the source give for TAGACCAACT here?
A: 1.11

Q: For ATTAGAGAT, which switch fluorescence ratio is on record?
A: 1.03

Q: With GGAACTATTG as the sequence, how does the switch fluorescence ratio read?
A: 0.997

Q: CATTTGCCGA was tested. Which switch fluorescence ratio did it give?
A: 0.997

Q: For ACTGGTATTC, which switch fluorescence ratio is on record?
A: 1.03

Q: How did the switch fluorescence ratio turn out when ATATTGGGG was run?
A: 0.986

Q: For CCTGTGGCCC, which switch fluorescence ratio is on record?
A: 1.06

Q: With CAGTGGGTTG as the sequence, how does the switch fluorescence ratio read?
A: 0.983

Q: For AGAAGAGAAA, which switch fluorescence ratio is on record?
A: 1

Q: ATACGACGGA was tested. Which switch fluorescence ratio did it give?
A: 1.01

Q: Which switch fluorescence ratio does the source give for CGCAACATGA here?
A: 1.4

Q: CGGGGAAAGG was tested. Which switch fluorescence ratio did it give?
A: 0.994

Q: How did the switch fluorescence ratio turn out when ATTGCAACAC was run?
A: 2.86

Q: How did the switch fluorescence ratio turn out when TTAGAGTTGC was run?
A: 1.01

Q: AGTGTCAACC was tested. Which switch fluorescence ratio did it give?
A: 0.942

Q: Which switch fluorescence ratio does the source give for TTAAAGGAAG here?
A: 1.02

Q: With AGGCGAAGTA as the sequence, how does the switch fluorescence ratio read?
A: 1.02

Q: With TGACATTAGG as the sequence, how does the switch fluorescence ratio read?
A: 0.993

Q: For AGGTGGCGCT, which switch fluorescence ratio is on record?
A: 1.01

Q: How did the switch fluorescence ratio turn out when GTCATTAAGT was run?
A: 1.02

Q: With CCTCTTATAA as the sequence, how does the switch fluorescence ratio read?
A: 1.78

Q: AGGGCTCAGC was tested. Which switch fluorescence ratio did it give?
A: 1.1

Q: With GAAAAAGTAA as the sequence, how does the switch fluorescence ratio read?
A: 1.01

Q: For TAGCCTTCAT, which switch fluorescence ratio is on record?
A: 1.03

Q: Which switch fluorescence ratio does the source give for ACCTGCACAT here?
A: 1.3

Q: CGATCCGTAC was tested. Which switch fluorescence ratio did it give?
A: 1.63

Q: Which switch fluorescence ratio does the source give for CGCTCTGTGT here?
A: 1.02

Q: ATTTTGAACG was tested. Which switch fluorescence ratio did it give?
A: 1.03

Q: For GCTTGGTGAC, which switch fluorescence ratio is on record?
A: 1.01

Q: Which switch fluorescence ratio does the source give for TAAATATGTT here?
A: 1.02

Q: With CTCGCTAAAT as the sequence, how does the switch fluorescence ratio read?
A: 1.35

Q: For TTAGGTTCT, which switch fluorescence ratio is on record?
A: 1.11

Q: For GTGGTTTAC, which switch fluorescence ratio is on record?
A: 1.02

Q: With ATTGGGCCGG as the sequence, how does the switch fluorescence ratio read?
A: 1.04

Q: For ATAAAATGCG, which switch fluorescence ratio is on record?
A: 1.01

Q: TAACCTGAAG was tested. Which switch fluorescence ratio did it give?
A: 1.19

Q: For AACTATGTCG, which switch fluorescence ratio is on record?
A: 0.974

Q: With CTTCATTAAG as the sequence, how does the switch fluorescence ratio read?
A: 1.02

Q: How did the switch fluorescence ratio turn out when TTCGGACAAG was run?
A: 0.991

Q: With CGTCCGGGGC as the sequence, how does the switch fluorescence ratio read?
A: 3.36

Q: How did the switch fluorescence ratio turn out when GCTGAGTTTA was run?
A: 0.976

Q: Which switch fluorescence ratio does the source give for AGGGTCATTT here?
A: 1.03

Q: How did the switch fluorescence ratio turn out when ACCCTGCATA was run?
A: 1.45

Q: Which switch fluorescence ratio does the source give for AAGTTAGAGC here?
A: 0.99

Q: How did the switch fluorescence ratio turn out when GCGAACGTTC was run?
A: 1.02

Q: TTGTTAGCTA was tested. Which switch fluorescence ratio did it give?
A: 1.01

Q: How did the switch fluorescence ratio turn out when TTTTGCCAAG was run?
A: 1.01

Q: CAGTAGCGCA was tested. Which switch fluorescence ratio did it give?
A: 1.17

Q: AAGGGGCGC was tested. Which switch fluorescence ratio did it give?
A: 1.11

Q: TTTCATCTA was tested. Which switch fluorescence ratio did it give?
A: 1.05

Q: Which switch fluorescence ratio does the source give for GCCTTAGAAA here?
A: 0.99

Q: For TTTTGCGGG, which switch fluorescence ratio is on record?
A: 0.945

Q: Which switch fluorescence ratio does the source give for AAGAGGTGGT here?
A: 0.938

Q: With AATTTCAGCA as the sequence, how does the switch fluorescence ratio read?
A: 0.981

Q: Which switch fluorescence ratio does the source give for AATTAGCTTG here?
A: 0.978

Q: GGTGTGCTGC was tested. Which switch fluorescence ratio did it give?
A: 1.03

Q: With GGTGCACCAG as the sequence, how does the switch fluorescence ratio read?
A: 0.976

Q: How did the switch fluorescence ratio turn out when TTCGGCACTA was run?
A: 1.03

Q: For CACCAACCTC, which switch fluorescence ratio is on record?
A: 1.19

Q: GGACGTTAAA was tested. Which switch fluorescence ratio did it give?
A: 1.08

Q: How did the switch fluorescence ratio turn out when GCCGCCATAG was run?
A: 4.18

Q: How did the switch fluorescence ratio turn out when TAAATCTTGT was run?
A: 1.45

Q: AGTACTTAGT was tested. Which switch fluorescence ratio did it give?
A: 1.03

Q: For GCAGGGAA, which switch fluorescence ratio is on record?
A: 0.998

Q: Which switch fluorescence ratio does the source give for CCCTAGAGGT here?
A: 1.91

Q: How did the switch fluorescence ratio turn out when CTGAGTTGCT was run?
A: 0.996

Q: With TTCGGGTCAA as the sequence, how does the switch fluorescence ratio read?
A: 1.07

Q: For AATGGACAGC, which switch fluorescence ratio is on record?
A: 1.04

Q: How did the switch fluorescence ratio turn out when TTGTATCGCC was run?
A: 1.01

Q: With GGAACCATTA as the sequence, how does the switch fluorescence ratio read?
A: 0.974

Q: For CCTTGGTTCT, which switch fluorescence ratio is on record?
A: 1.01

Q: How did the switch fluorescence ratio turn out when CTTTACTGC was run?
A: 1.01

Q: Which switch fluorescence ratio does the source give for ACAAAGAGGG here?
A: 0.983

— the supplement of paper PMC10126150
